# In the supplement of paper PMC11417369:
# The list shows a part of the results.
# Test system: PF3D7_0420300 AP2 domain 1 (GST-tagged)
# Test: gcPBM binding intensity (ln(normalized median fluorescence intensity)); higher = stronger DNA binding
# How it was run: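 The binding buffer was 1× PBS containing 1% milk, 0.2 mg/ml BSA, 0.5% salmon testes DNA and 0.03% Triton X-100. In it, GST-tagged P. falciparum DNA-binding domains expressed in E. coli were applied for 1 h to an Agilent 4 × 180k array of primer-extended double-stranded 36-bp intergenic genomic probes plus negative controls. Binding intensity, read with Alexa488 anti-GST antibody and a 488 nm scan, is the highest Masliner-normalised natural-log median intensity across replicate spots of either probe orientation.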
row,Sequence,gcPBM binding intensity (ln)
1,TAAGGATGAATCCTTTGTACATATATATATATATAT [XGTACX_site1242],9.12
2,TTTTTTTAAATATACACACACATTTATACATATATA [CACACA_site3400],9.61
3,TGAAAAGAAAACACATGTACAAATATATAAATATAA [XGTACX_site6098],9.48
4,GTTATACATTTTGATTGTACATAAACCATTTGAGCA [XGTACX_site7283],9.05
5,TTTAACGTTGAATATACACACATATATATATATATA [CACACA_site3698],9.38
6,TATAAACATATCATATGTACATATATTTTTATAAAA [XGTACX_site8882],9.05
7,ATATATTTTTGTAGTGTGCACGTTTATATGGTGAAA,9.38
8,AAGAAAAAATAAAAAATAAAAATAAAAAATAAAAAA [TGCATGCA_negctrl_site274],9.23
9,ATCCAAAAAATTAATGCATGCGCAAAAAATAGCTTA [TGCATGCA_site615],9.11
10,AAAAAAAAAACATACACACACATATATATATATATG [CACACA_site1586],9.93
11,TGTCCTTATTTGCACACACACATATAAGAAATTTAA [CACACA_site7485],9.91
12,TTTGTTTTATCTTATATGCACACGATAAAAAAAAAA [CACACA_site2673],9.03
13,AGATGATATACGTAAACACACAAATAAAAAAAATTT [CACACA_site3327],9.54
14,ACAAAAAAATAAGGTGCACACAAAAAAAAAAAAAAA [CACACA_site8171],9.5
15,TTTTTTTTTTTTTGATGTACTTATTTAATAAGATAT [XGTACX_site376],8.99
16,TATATGGCATATTTCACACACACATAATGAATATTA [CACACA_site9181],9.77
17,GAGTTCAGTTTTTGTTGTACTTATTCTTAATATGTC [XGTACX_site6083],9.53
18,ATATAGCATATAATTTGTACACAGGCCATACCTGAA [XGTACX_site533],9.28
19,TACATATAAAAGTACACACACACACCCATATATATA [CACACA_site941],10.2
20,ATGGACTTTTATAGTTGTACATACTATGAGAACTTT [XGTACX_site2800],9.16
21,TAAAATAAATTGTGCACACATATTTATAAATATGAA [CACACA_site2331],9.34
22,TATTGCCCGAAACACACACACATATATATATATATA [CACACA_site2491],9.81
23,GTTTATCACAGCCACGCACACATAATATATGTATAT [CACACA_site3669],9.54

row,Sequence,gcPBM binding intensity (ln)
1,TATAATATTTACGACAGTACATATATATATATGTAT [XGTACX_site8332],9.3
2,AAATAATTTGTTGACACACACACACCCATACATATA [CACACA_site2285],10.2
3,ATTATATGTAACACGTGTACCTATTTATGTATGCTT [XGTACX_site5748],9.4
4,AATATACAAAATATCACACATATAAAATAATATATA [CACACA_site6067],9.48
5,GATATATAAACATATACACACAAAAACATATTTATA [CACACA_site6734],9.51
6,TGATAATTTCATTTTGCATGTGACAATACAAGATGT [TGCATGCA_site203],9.07
7,AATGGTTCAACGTAGTGTACGTAATAAATAATAAAT [XGTACX_site8668],9.33
8,AAATAATATGTAATCAAATTCACCAAACGAAAAAAA [TGCATGCA_negctrl_site33],9.52
9,TATAAAATAAAAGTAAATATATATATATATATATAT [TGCATGCA_negctrl_site208],9.06
10,TTCTAGAAAACTGATCGTACAAATAAATATAGACAC [XGTACX_site2808],9.33
11,ATATATTATAATGATACACACAAGAAATAAAATTAC [CACACA_site3095],9.9
12,AATGCATACACATATTGTACTAAGCCATACAACACA [XGTACX_site305],9.41
13,AAAATAGGGATCACGTGTACATATAAAGTGACATAC [XGTACX_site8190],9.61
14,TAACTCTATTTTTTTGCATGCTGAAGCTATGAGTTT [TGCATGCA_site821],9.15
15,TATGTAGGTAAAAATTGTACTTTTTTTTTAATATTT [XGTACX_site2303],9.17
16,TGACATAATGTGTGTAGTACATATATCGTTATTTGA [XGTACX_site5152],9.46
17,TGAATAAATATAAAAGGTACACATATAAATATATAT [XGTACX_site6349],9.51
18,ATAAAAATAAAATAAGGTACAGACGAAAAAATTGAA [XGTACX_site5097],9.74
19,ATAATATTATGTGTGAATATATCTTTAAAAAGGATA [GTGCAC_negctrl_site15],9.25
20,TATATATTTCATAATACACACGAAAAAAAAAAAAAA [CACACA_site8972],9.31
21,CACAAAAATAGACACACACACATATAAATAAATATA [CACACA_site6598],10
22,ATATATATATATATATGTACACATATTATAAAAAAA [XGTACX_site8644],9.04
23,ATATATATTATATAGTGTACCTATGTATAATAATAT [XGTACX_site1683],9.2

row,Sequence,gcPBM binding intensity (ln)
1,TATATATATAAATACACACACACCGTCCGTGTTAAA [CACACA_site5623],9.73
2,AATACGTTATTATTTTGTACATATAAATAATAAGTT [XGTACX_site815],9.14
3,ACTCTTTTAACGCAAAGTACTTTTTAAAATATTTCG [XGTACX_site7534],9.27
4,AACATACGAATATTCACACATAAATATATAAATCGC [CACACA_site4672],9.57
5,ATTTCTATTTGGGTTAGTACATATAAGTCTATTTTC [XGTACX_site3234],9.45
6,TATATAATCGAGTGCACACACAAAAAAAAAGTGAAC [CACACA_site1483],9.92
7,TTTTTTTTTTCTTTTTGTACATATTCATAACAAGTA [XGTACX_site2784],9.1
8,TATTATATATATATCACACATATATTCATGTACATA [CACACA_site5432],9.33
9,TTTGACATACCTCTTGCATGTGAAAAACTTTTCGCT [TGCATGCA_site364],9.11
10,ATATATAATATTTATTGTACTATTTTATTTTTATAA [XGTACX_site705],9.28
11,AAAAAAGACCATGTTAGTACATAAGATTTTTTTCAT [XGTACX_site4298],9.18
12,AATTTTCTTAAAATTTGTACGTATATATTTAATATA [XGTACX_site3906],9.1
13,GTCATATATAATTGTTGTACATTTTTATAATTATGT [XGTACX_site8091],9.47
14,AATATAAATGTGATTACACACAACACATTTAAATGT [CACACA_site1212],9.6
15,AAAAAATTATATTATGCACACATCGTTATATATATA [CACACA_site1201],9.43
16,TATATATACTATAACACACATACACCCAAAAAAAAA [CACACA_site536],9.8
17,CTTATACATATATATAGTACATATATCATTTTTATG [XGTACX_site4462],9.39
18,TTAAAAAGATGTCACTGTACATAAAACATAAAATAT [XGTACX_site2886],9.41
19,TTTCATGACAATGTTTGTACATAATAAAATATATTT [XGTACX_site7039],8.94
20,TAAACAGACATATAAACACACATACATACATACATA [CACACA_site7215],9.56
21,AAAAAAAAAAAAAAAACACACATAAAACTATAATAA [CACACA_site7758],9.47
22,GAAGAGACTTAGAAAACACACATACATAAGATAATT [CACACA_site5333],9.63
23,ATATGTATCTCATCGTGTACATGTATATAATATATA [XGTACX_site4139],9.37

row,Sequence,gcPBM binding intensity (ln)
1,ATATAGTAAAGTTATACACACATGAATTTTCCCATG [CACACA_site6923],9.55
2,ATATATCAAAATAATTGTACAAATTTTATATAATTT [XGTACX_site7249],9.12
3,TTAGAAAAATTATATATACACACTTATATTTATATA [CACACA_site2821],9.13
4,GTATTACATGAGGACACACACAAAAAAAATATATAT [CACACA_site769],9.91
5,TAATTATTTTAAAAAGTGCATTAAAAGATATTAAAT [GTGCAC_site9694],9.05
6,TTATTATAAAAATGTAGTACAATACTTTTTTTTTTT [XGTACX_site732],8.84
7,TATATATCTATAAACACACACCAAAATTTGTGCTTT [CACACA_site7448],9.48
8,ATAAAATGAACAAACACACACACATATATTTATATA [CACACA_site7181],10.1
9,AAATAAAAAGAAAAGAAAAAGAAAATAAAAAGAGAA [XGTACX_negctrl_site14],9.72
10,ATATACTTTAAAGGTTAAGAAAGAAAAAAAAAAAAA [CACACA_negctrl_site956],8.93
11,ATATATATATATTATATGCACACGTTAAAATTTCAT [CACACA_site709],9.42
12,AAAAATAAATTTATATATTACAAGAACAAATATAGT [XGTACX_negctrl_site567],9.42
13,GAATAAATAAGATACGTACACACATATACAAAATAT [CACACA_site3660],9.88
14,ATAATATAAACGTATACACACAAGAGAAGCATAAAG [CACACA_site2889],9.96
15,AAAAGGAAAGGAAAGGGTACAATCCTATTATATTAT [XGTACX_site8652],9.25
16,TTTTTTTAAAAAAAGGGTACATATATATATTTTTCT [XGTACX_site1066],9.07
17,TTATATTTAGTATATGCACACTTTATGTTTGTTATT [CACACA_site5163],9.48
18,TATAAATACGAACACACACACCTTATAATTACTACT [CACACA_site7827],9.98
19,AAGAAAGGTTAAACATGTACATAAATATTTTACATA [XGTACX_site5024],9.36
20,TATCTTTTTATTTTTTATTTTTTTTTTATAATTTAC [XGTACX_negctrl_site414],9.27
